Source: PMC11747885, “Potent inhibitors of the human RNA ligase Rlig1 highlights its role in RNA integrity maintenance under oxidative cellular stress” (Chemical Science, 2025)
Where “and” joins values, the source holds several entries; their conditions need not be identical. Equal values may be shown once.

System: HEK293 cells
Assay: Cell viability assay of HEK293 cells treated with inhibitors (CellTiter-Glo)

SMILES: Nc1nccc(Nc2ccc(NC(=O)c3ccc(Nc4ccnc5ccccc45)cc3)cc2)n1 [Compound 26]
- cytotoxicity (in words) (HEK293, 24 h, up to 30 μM): moderate cytotoxicity
- EC50 (HEK293, 24 h compound, highest concentration 30 μM, n = 3): 30.5 µM
- IC50 (Figure 3D: EC50 values for plot; log(inhibitor) vs. response -- Variable slope (four parameters)) (HEK293 cell viability, fit per plate (3 plates, 4 technical replicates each), highest tested concentration 30 µM): 28.7087 µM and 33.416 µM and 29.6362 µM
- LogIC50 (log(inhibitor) vs. response -- Variable slope (four parameters)) (HEK293 cell viability, fit per plate (3 plates, 4 technical replicates each), log of [µM]): 1.458 and 1.524 and 1.472
